Assay [1] deals with Leucine-rich domain (LD) of human RanBP2 (residues 62-711), GAL4 DNA-binding domain bait (human) (UniProt P49792). Briefly: two-hybrid; GAL4 system; LD and its subdomains as GAL4 DNA-binding domain baits (pBUTE, HybriZAP pBD-GAL4); screens of murine embryo and brain and bovine retinal cDNA libraries; interactions quantified by liquid beta-galactosidase and growth assays.
The target in assay [2] is GST-LD, leucine-rich domain of RanBP2 fused to glutathione S-transferase (human) (UniProt P49792). As to the kind of experiment: pull-down; GST-fused proteins (0.5-2.2 uM) with CHAPS-solubilized retinal extracts; co-precipitates analysed by Western blot; only the target purified.
Assay [3] deals with T1, GST-LDZIP, leucine zipper domain of human RanBP2 (residues 447-483) fused to GST (human) (UniProt P49792).
T1 sequence: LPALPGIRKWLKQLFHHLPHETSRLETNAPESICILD
The description is as above.

For assay [4], the target named is GST-LD, leucine-rich domain of RanBP2 fused to glutathione S-transferase (human) (UniProt P49792). Briefly: pull-down; GST-JX2 (2.2 uM) incubated with extracts (~2.0 mg) of seven different tissues; Western blot against HKI and Cox11; only the target purified.

Results are given in words; binding and its absence hold for the method and conditions named. For some assays here: In cells and extracts the contact can be indirect. Some results given as binding are weak or reduced against the parent protein; the word gives no strength. For some assays here: Where a sequence is shown, tags or fusion partners need not be part of it.

B1: Cox11-C, mitochondrial intermembrane domain of murine Cox11, two-hybrid construct (domain or fragment, UniProt Q6P8I6 117-275)
chain: RLYCQTTGLGGSAVAGHSSDQIENMVPVKDRVIKVTFNADVHASLQWNFRPQQTEIYVVPGETALAFYKAKNPTDKPVIGISTYNVVPFEAGQYFNKIQCFCFEEQRLNPQEEVDMPVFFYIDPEFAEDPRMVNVDLITLSYTFFEAKEGHKLPVPGYN
Turning to B1, the binding result in assay [1] was “binds”.

B2: Murine Cox11, two-hybrid construct (intact/complete Cox11) (protein, UniProt Q6P8I6 1-275)
chain: MGGLWCPGWRLVASCGRGWRQPGWSGRTVVNAELVLRPGWDGLGGAERGLRRLGTWKRPCGVRGPATQPPRRPRSSNPFQRAQEDEWRRRNKTVLTYVAAAAVGMLGASYAAVPLYRLYCQTTGLGGSAVAGHSSDQIENMVPVKDRVIKVTFNADVHASLQWNFRPQQTEIYVVPGETALAFYKAKNPTDKPVIGISTYNVVPFEAGQYFNKIQCFCFEEQRLNPQEEVDMPVFFYIDPEFAEDPRMVNVDLITLSYTFFEAKEGHKLPVPGYN
In the case of B2, the binding result in assay [1] is given as “binds”.

B3: Cox11, endogenous in retinal and other tissue extracts (protein, UniProt Q6P8I6 75-275)
chain: SSNPFQRAQEDEWRRRNKTVLTYVAAAAVGMLGASYAAVPLYRLYCQTTGLGGSAVAGHSSDQIENMVPVKDRVIKVTFNADVHASLQWNFRPQQTEIYVVPGETALAFYKAKNPTDKPVIGISTYNVVPFEAGQYFNKIQCFCFEEQRLNPQEEVDMPVFFYIDPEFAEDPRMVNVDLITLSYTFFEAKEGHKLPVPGYN
Consider B3, for which the binding entry in assay [2] is recorded as “binds”; in assay [3], “no binding (tested: 0.5–2.2 μM of GST-fused proteins)”; in assay [4], “binds”.

The record behind these values is PMC1626108.
